# Article PMC4615246 (Nucleus, 2015)
# T1: LacI-CFP-Nt Nup133 (human, UniProt Q8WUM0 16-820)
# T1 sequence: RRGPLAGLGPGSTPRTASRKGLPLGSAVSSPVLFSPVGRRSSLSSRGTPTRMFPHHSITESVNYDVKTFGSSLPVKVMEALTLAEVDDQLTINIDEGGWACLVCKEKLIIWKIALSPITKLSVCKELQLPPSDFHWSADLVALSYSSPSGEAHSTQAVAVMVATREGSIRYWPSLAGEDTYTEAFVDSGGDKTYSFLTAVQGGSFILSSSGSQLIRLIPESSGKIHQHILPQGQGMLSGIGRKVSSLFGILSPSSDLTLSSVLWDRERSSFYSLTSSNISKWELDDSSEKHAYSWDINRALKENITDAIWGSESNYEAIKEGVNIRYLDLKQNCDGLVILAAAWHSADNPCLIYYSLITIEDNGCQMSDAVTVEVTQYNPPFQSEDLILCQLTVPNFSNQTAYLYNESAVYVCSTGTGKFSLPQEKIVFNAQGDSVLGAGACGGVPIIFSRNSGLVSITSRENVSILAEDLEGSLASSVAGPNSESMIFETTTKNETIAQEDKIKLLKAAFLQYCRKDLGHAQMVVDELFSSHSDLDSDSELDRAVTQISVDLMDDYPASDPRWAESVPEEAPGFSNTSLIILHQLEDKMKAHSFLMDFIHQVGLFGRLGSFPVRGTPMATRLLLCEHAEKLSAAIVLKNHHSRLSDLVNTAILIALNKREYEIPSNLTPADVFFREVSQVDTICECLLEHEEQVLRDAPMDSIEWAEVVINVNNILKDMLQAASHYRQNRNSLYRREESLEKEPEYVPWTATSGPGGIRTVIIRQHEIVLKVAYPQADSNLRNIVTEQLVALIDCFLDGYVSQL
# T2: LacI-CFP-Nup155 R391H (human, UniProt O75694 1-1391, R391H)
# T2 sequence: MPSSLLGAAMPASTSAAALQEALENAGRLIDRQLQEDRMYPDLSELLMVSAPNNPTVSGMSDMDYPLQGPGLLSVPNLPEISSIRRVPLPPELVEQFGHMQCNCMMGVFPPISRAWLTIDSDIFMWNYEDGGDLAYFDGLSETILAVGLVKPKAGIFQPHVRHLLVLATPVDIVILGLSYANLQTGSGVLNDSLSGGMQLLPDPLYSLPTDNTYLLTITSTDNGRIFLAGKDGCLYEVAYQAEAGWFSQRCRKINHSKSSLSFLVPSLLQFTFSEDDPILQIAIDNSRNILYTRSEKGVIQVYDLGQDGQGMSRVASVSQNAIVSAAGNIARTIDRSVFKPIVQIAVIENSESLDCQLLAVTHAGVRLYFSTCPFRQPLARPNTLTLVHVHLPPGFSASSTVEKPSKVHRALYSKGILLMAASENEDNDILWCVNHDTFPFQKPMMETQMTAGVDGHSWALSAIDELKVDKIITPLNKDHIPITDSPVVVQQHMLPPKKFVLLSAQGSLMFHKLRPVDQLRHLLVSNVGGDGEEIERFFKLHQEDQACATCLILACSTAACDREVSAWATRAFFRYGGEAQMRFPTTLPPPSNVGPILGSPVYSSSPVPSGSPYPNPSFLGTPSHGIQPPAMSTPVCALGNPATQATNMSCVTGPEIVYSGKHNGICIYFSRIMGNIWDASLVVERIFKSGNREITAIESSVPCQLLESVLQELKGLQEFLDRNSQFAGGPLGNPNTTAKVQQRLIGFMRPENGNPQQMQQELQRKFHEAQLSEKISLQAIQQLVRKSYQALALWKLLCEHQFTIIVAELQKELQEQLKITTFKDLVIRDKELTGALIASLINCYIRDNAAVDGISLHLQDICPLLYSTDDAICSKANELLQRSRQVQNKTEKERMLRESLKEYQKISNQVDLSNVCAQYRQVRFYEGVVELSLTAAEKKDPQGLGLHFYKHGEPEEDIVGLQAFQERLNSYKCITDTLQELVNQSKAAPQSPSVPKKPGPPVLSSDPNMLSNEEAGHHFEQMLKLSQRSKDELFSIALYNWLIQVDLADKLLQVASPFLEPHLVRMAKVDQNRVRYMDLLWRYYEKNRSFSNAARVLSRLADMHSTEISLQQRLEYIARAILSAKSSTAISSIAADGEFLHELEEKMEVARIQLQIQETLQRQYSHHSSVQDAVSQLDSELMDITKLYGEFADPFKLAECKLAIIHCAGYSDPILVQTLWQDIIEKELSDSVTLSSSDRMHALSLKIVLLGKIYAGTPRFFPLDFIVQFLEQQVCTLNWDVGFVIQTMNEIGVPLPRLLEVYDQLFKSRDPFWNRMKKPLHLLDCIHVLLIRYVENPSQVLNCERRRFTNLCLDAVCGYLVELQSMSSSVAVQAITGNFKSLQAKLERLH
# T3: LacI-CFP-Nup50 (human, UniProt Q9UKX7 1-468)
# T3 sequence: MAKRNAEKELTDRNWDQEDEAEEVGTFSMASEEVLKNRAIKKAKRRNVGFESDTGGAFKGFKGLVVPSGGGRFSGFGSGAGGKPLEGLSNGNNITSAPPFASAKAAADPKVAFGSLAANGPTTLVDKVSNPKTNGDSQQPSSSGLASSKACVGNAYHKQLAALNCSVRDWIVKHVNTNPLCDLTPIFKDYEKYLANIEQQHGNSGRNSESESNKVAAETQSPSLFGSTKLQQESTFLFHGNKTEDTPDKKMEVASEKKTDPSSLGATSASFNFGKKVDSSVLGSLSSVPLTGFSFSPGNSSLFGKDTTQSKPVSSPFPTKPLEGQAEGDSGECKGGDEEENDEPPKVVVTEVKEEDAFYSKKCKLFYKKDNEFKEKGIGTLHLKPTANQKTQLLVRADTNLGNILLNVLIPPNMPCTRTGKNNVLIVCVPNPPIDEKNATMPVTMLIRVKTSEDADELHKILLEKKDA
# B1: Pom121 (endogenous) (natural protein)
# chain: MSPAAAAAGAGERRRPIASVRDGRGRGCGGPARAVLLGLSLVGLLLYLVPAAAALAWLTVGATAAWWGLSREPRGSRPLSSFVRKARHRRPLSSFVRKARHRRTLFASPLAKSTANGNLLEPRTLLEGPDPAELLLMGSYLGKPGPPQPAAAPEGQDLRDRPGRRPPARPAPRSPPPRSPPPRSPPPSPPTHRAHHVYPSLPTPLLRPSRRPSPRDCGTLPNRFVITPRRRYPIHQAQYSCLGVLPTVCWNGYHKKAVLSPRNSR[about 450 residues not shown]KQSFLFGTQNTSPSSPAAPAASSAPPMFKPIFTAPPKSEKEGPTPPGPSVTATAPSSSSLPTTTSTTAPTFQPVFSSMGPPASVPLPAPFFKQTTTPATAPTTTAPLFTGLASATSAVAPITSASPSTDSASKPAFGFGINSVSSSSVSTTTSTATAASQPFLFGAPQASAASFTPAMGSIFQFGKPPALPTTTTVTTFSQSLHTAVPTATSSSAADFSGFGSTLATSAPATSSQPTLTFSNTSTPTFNIPFGSSAKSPLPSYPGANPQPAFGAAEGQPPGAAKPALAPSFGSSFTFGNSAAPAAAPTPAPPSMIKVVPAYVPTPIHPIFGGATHSAFGLKATASAFGAPASSQPAFGGSTAVFFGAATSSGFGATTQTASSGSSSSVFGSTTPSPFTFGGSAAPAGSGSFGINVATPGSSTTTGAFSFGAGQSGSTATSTPFAGGLGQNALGTTGQSTPFAFNVSSTTESKPVFGGTATPTFGLNTPAPGVGTSGSSLSFGASSAPAQGFVGVAPFGSAALSFSIGAGSKTPGARQRLQARRQHTRKK
# Legend:
# Test in all cases: LacI/LacO array recruitment in cells
# LacI-CFP-Nt Nup133 = molecular target: T1, LacI-CFP-Nt Nup133
# LacI-CFP-Nup155 R391H = molecular target: T2, LacI-CFP-Nup155 R391H
# LacI-CFP-Nup50 = molecular target: T3, LacI-CFP-Nup50
binder,measurement,setting,value
B1,percent of transfected cells showing colocalization,LacI-CFP-Nt Nup133,14%
same,percent of transfected cells showing colocalization,LacI-CFP-Nup155 R391H,~8%
same,percent of transfected cells showing colocalization,LacI-CFP-Nup50,24%
